The list shows a part of the results.
What was measured:
Assay in all cases: glycan array binding signal (z-score within array); higher = stronger binding
Conditions in all cases: glycan notation: IUPAC condensed, linker removed
[1] = target: Neu5Ac(a2-6)Gal(b1-4)GlcNAc(b1-2)Man(a1-3)[Man(a1-6)]Man(b1-4)GlcNAc(b1-4)GlcNAc
In short: (§1)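 The binding signal is a Z-score computed within each array. Data were drawn from 3228 arrays in the Consortium for Functional Glycomics database, restricted to those with a known protein sequence. Scores were averaged over arrays of the same protein sequence at different concentrations or buffers, and over linkers, and negative values can be taken as non-binding.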

[2] = target: Neu5Ac(a2-6)Gal(b1-4)GlcNAc(b1-2)Man(a1-3)[Neu5Ac(a2-6)Gal(b1-4)GlcNAc(b1-2)Man(a1-6)]Man(b1-4)GlcNAc(b1-4)GlcNAc
In short: as §1

[3] = target: Neu5Ac(a2-6)Gal(b1-4)GlcNAc(b1-2)Man(a1-6)Man(b1-4)GlcNAc(b1-4)GlcNAc
In short: as §1

[4] = target: Neu5Ac(a2-6)Gal(b1-4)GlcNAc(b1-2)Man(a1-6)[Gal(b1-4)GlcNAc(b1-2)Man(a1-3)]Man(b1-4)GlcNAc(b1-4)GlcNAc
In short: as §1

[5] = target: Neu5Ac(a2-6)Gal(b1-4)GlcNAc(b1-2)Man(a1-6)[GlcNAc(b1-2)Man(a1-3)]Man(b1-4)GlcNAc(b1-4)GlcNAc
In short: as §1

[6] = target: Neu5Ac(a2-6)Gal(b1-4)GlcNAc(b1-2)Man(a1-6)[Man(a1-3)]Man(b1-4)GlcNAc(b1-4)GlcNAc
In short: as §1

[7] = target: Neu5Ac(a2-6)Gal(b1-4)GlcNAc(b1-3)Gal(b1-3)GlcNAc
In short: as §1

[8] = target: Neu5Ac(a2-6)Gal(b1-4)GlcNAc(b1-3)Gal(b1-4)GlcNAc
In short: as §1

[9] = target: Neu5Ac(a2-6)Gal(b1-4)GlcNAc(b1-3)Gal(b1-4)GlcNAc(b1-3)Gal(b1-4)GlcNAc
In short: as §1

[10] = target: Neu5Ac(a2-6)Gal(b1-4)GlcNAc(b1-3)Gal(b1-4)[Fuc(a1-3)]GlcNAc(b1-3)Gal(b1-4)[Fuc(a1-3)]GlcNAc
In short: as §1

[11] = target: Neu5Ac(a2-6)Gal(b1-4)GlcNAc(b1-3)GalNAc
In short: as §1

[12] = target: Neu5Ac(a2-6)Gal(b1-4)GlcNAc6S
In short: as §1

[13] = target: Neu5Ac(a2-6)GalNAc
In short: as §1

[14] = target: Neu5Ac(a2-6)GalNAc(b1-4)GlcNAc
In short: as §1

[15] = target: Neu5Ac(a2-6)GlcNAc(b1-4)GlcNAc
In short: as §1

[16] = target: Neu5Ac(a2-6)GlcNAc(b1-4)GlcNAc(b1-4)GlcNAc
In short: as §1

[17] = target: Neu5Ac(a2-8)Neu5Ac
In short: as §1

[18] = target: Neu5Ac(a2-8)Neu5Ac(a2-3)Gal(b1-4)Glc
In short: as §1

[19] = target: Neu5Ac(a2-8)Neu5Ac(a2-3)[Gal(b1-3)GalNAc(b1-4)]Gal(b1-4)Glc
In short: as §1

[20] = target: Neu5Ac(a2-8)Neu5Ac(a2-3)[GalNAc(b1-4)]Gal(b1-4)Glc
In short: as §1

[21] = target: Neu5Ac(a2-8)Neu5Ac(a2-8)Neu5Ac
In short: as §1

[22] = target: Neu5Ac(a2-8)Neu5Ac(a2-8)Neu5Ac(a2-3)Gal(b1-4)Glc
In short: as §1

[23] = target: Neu5Ac(a2-8)Neu5Ac(a2-8)Neu5Ac(a2-3)[GalNAc(b1-4)]Gal(b1-4)Glc
In short: as §1

[24] = target: Neu5Ac(a2-8)Neu5Ac(a2-8)Neu5Ac(a2-8)Neu5Ac(a2-3)[GalNAc(b1-4)]Gal(b1-4)Glc
In short: as §1

[25] = target: Neu5Ac(b2-6)Gal(b1-4)GlcNAc
In short: as §1

[26] = target: Neu5Ac(b2-6)GalNAc
In short: as §1

[27] = target: Neu5Ac9Ac(a2-3)Gal(b1-3)GlcNAc
In short: as §1

[28] = target: Neu5Ac9Ac(a2-3)Gal(b1-4)GlcNAc
In short: as §1

[29] = target: Neu5Ac9Ac(a2-6)Gal(b1-4)GlcNAc
In short: as §1

[30] = target: Neu5Gc(a2-3)Gal(b1-3)GlcNAc
In short: as §1

[31] = target: Neu5Gc(a2-3)Gal(b1-3)[Fuc(a1-4)]GlcNAc
In short: as §1

[32] = target: Neu5Gc(a2-3)Gal(b1-4)Glc
In short: as §1

[33] = target: Neu5Gc(a2-3)Gal(b1-4)GlcNAc
In short: as §1

[34] = target: Neu5Gc(a2-3)Gal(b1-4)[Fuc(a1-3)]GlcNAc
In short: as §1

[35] = target: Neu5Gc(a2-6)Gal(b1-4)GlcNAc
In short: as §1

[36] = target: Neu5Gc(a2-6)GalNAc
In short: as §1

[37] = target: Neu5Gc(b2-6)Gal(b1-4)GlcNAc
In short: as §1

B1: Gal 3 (Canis lupus) (protein)
chain: MADSFSLNDALSGSGNPNPQGWPGPWGNQPAGAGGYPGASYPGAYPGQAPPGGYPGQAPPGGYPGQAPPGGYPGQAPPGGYPGQAPPGGYPGQAPPGTYPGPTAPAYPGPTAPGTQPGQPSGPGAYPPPGQPSAPGAYPAAGPFGIPAGPLTVPYDLPLPGGVKPRMLITILGTVRPSANRLALDFKRGNDVAFHFNPRFNEDNKRVIVCNTKLDNIWGKEERQAAFPFESGKPFKIQVLVESDHFKVAVNDAHLLQYNHRMKNLPEISKLGISGDIDLTSASYAMI
glycan array binding signal (z-score) [1]: -0.251 | glycan array binding signal (z-score) [2]: -0.244 | glycan array binding signal (z-score) [3]: -0.258 | glycan array binding signal (z-score) [4]: -0.181 | glycan array binding signal (z-score) [5]: -0.265 | glycan array binding signal (z-score) [6]: -0.263 | glycan array binding signal (z-score) [7]: 2.17 | glycan array binding signal (z-score) [8]: 1.94 | glycan array binding signal (z-score) [9]: 5.91 | glycan array binding signal (z-score) [10]: -0.23 | glycan array binding signal (z-score) [11]: -0.241 | glycan array binding signal (z-score) [12]: -0.26 | glycan array binding signal (z-score) [13]: -0.257 | glycan array binding signal (z-score) [14]: -0.265 | glycan array binding signal (z-score) [15]: -0.251 | glycan array binding signal (z-score) [16]: -0.262 | glycan array binding signal (z-score) [17]: -0.259 | glycan array binding signal (z-score) [18]: -0.254 | glycan array binding signal (z-score) [19]: -0.155 | glycan array binding signal (z-score) [20]: -0.257 | glycan array binding signal (z-score) [21]: -0.258 | glycan array binding signal (z-score) [22]: -0.256 | glycan array binding signal (z-score) [23]: -0.261 | glycan array binding signal (z-score) [24]: -0.253 | glycan array binding signal (z-score) [25]: -0.272 | glycan array binding signal (z-score) [26]: -0.254 | glycan array binding signal (z-score) [27]: -0.256 | glycan array binding signal (z-score) [28]: -0.18 | glycan array binding signal (z-score) [29]: -0.27 | glycan array binding signal (z-score) [30]: -0.109 | glycan array binding signal (z-score) [31]: -0.262 | glycan array binding signal (z-score) [32]: -0.253 | glycan array binding signal (z-score) [33]: -0.141 | glycan array binding signal (z-score) [34]: -0.265 | glycan array binding signal (z-score) [35]: -0.267 | glycan array binding signal (z-score) [36]: -0.259 | glycan array binding signal (z-score) [37]: -0.25

Source: the supplement of paper PMC8728848
